# Reference: US20210386788A1, “ER TUNABLE PROTEIN REGULATION” (Obsidian Therapeutics, Inc., priority 2018, published 2021)
# B1: OT-001727: ER DD regulated membrane bound IL15-IL15Ra construct (protein)
# chain: MALPVTALLLPLALLLHAARPGSSLALSLTADQMVSALLDAEPPILYSEYDPTRPFSEASMMGLLTNLADRELVHMINWAKRVPGFVDLALHDQVHLLECAWMEILMIGLVWRSMEHPGKLLFAPNLLLDRNQGKCVEGGVEIFDMLLATSSRFRMMNLQGEEFVCLKSIILLNSGVYTFLSSTLKSLEEKDHIHRVLDKITDTLIHLMAKAGLTLQQQHQRLAQLLLILSHIRHMSSKRMEHLYSMKCKNVVPLSDLLLEMLDAHRLGS[in this place about 120 residues]SGGGSGGGGSGGGGSGGGGSGGGSLQITCPPPMSVEHADIWVKSYSLYSRERYICNSGFKRKAGTSSLTECVLNKATNVAHWTTPSLKCIRDPALVHQRPAPPSTVTTAGVTPQPESLSPSGKEPAASSPSSNNTAATTAAIVPGSQLMPSKSPSTGTTEISSHESSHGTPSQTTAKNWELTASASHQPPGVYPQGHSDTTVAISTSTVLLCGLSAVSLLACYLKSRQTPPLASVEMEAMEALPVTWGTSSRDEDLENCSHHL
# Tested on: T cells
# Assay: Membrane bound IL15-IL15Ra expression on transduced T cells (FACS, anti IL15 and anti IL15Ra)
# Format: cell-based
# Settings: for % IL15-IL15Ra positive cells, 1 μM BZD: 1 μM BZD 24 hours; for % IL15-IL15Ra positive cells, DMSO: DMSO 24 hours
# Description: T cells were activated with CD3/CD28 beads for 24 hours, transduced with lentivirus corresponding to OT-001727, using either 2 μl or 10 μl of virus. Cells were then expanded for 6 days. T cells were then treated with 1 μM BZD or DMSO for 24 hours.
# Expression of membrane bound IL15-IL15Ra were analyzed by FACS using anti IL15 and anti IL15Ra antibodies and the percentage of cells that were positive for IL15 and IL15Ra cells was calculated (Table 17).
molecule,measurement,setting,value
B1,Stabilization Ratio,2 μl virus,4
same,"% IL15-IL15Ra positive cells, 1 μM BZD",2 μl virus,65%
same,"% IL15-IL15Ra positive cells, DMSO",2 μl virus,16%
same,Stabilization Ratio,10 μl virus,3
same,"% IL15-IL15Ra positive cells, 1 μM BZD",10 μl virus,79%
same,"% IL15-IL15Ra positive cells, DMSO",10 μl virus,27%
same,ligand dependent expression of IL15-IL15Ra (in words),BZD treatment versus DMSO,strong ligand dependent expression of IL15-IL15Ra
